The values that follow come from PubChem BioAssay AID1347073 (National Center for Advancing Translational Sciences (NCATS), 2019).

Hit rate of the full screen: of about 45,000 compounds, about 200 (0.44%) were called active. Roughly 7% stayed inconclusive and do not appear here. The call rests on the fitted dose curve; in most records, active means well fitted activation curve with a large enough effect; inconclusive means small, poorly fitted or top-dose-only effect; inactive means no such curve, though single readings can be large or run the other way. The list shows a part of the results.

This test can be described thus: qHTS of TDP-43 Inhibitors: NCGC Sytravon Library Screen. Further: 0% is about no effect; nearly all actives have a fitted effect of over 55% in size. The conditions noted are these: yeast TDP-43 toxicity rescue, BacTiter-Glo growth, 24 h; series mostly up to 46.1 µM; growth rescue (activation): at the top concentration. Put shortly: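 TDP-43-expressing yeast, pregrown in raffinose, seeded at OD600 0.02 in galactose medium with compound for 24 hr at 30 deg C. Growth read by BacTiter-Glo luminescence, so rescue of toxicity appears as activation.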
Background: qHTS replaces the single test concentration by a dilution series.
For `COc1ccccc1N(CC(=O)NCCc1ccccc1)C(=O)CCC(=O)Nc1nccs1`, the “growth rescue (activation)” value was inactive: -4.88%.

As for `O=C(N/C(=C\c1ccco1)C(=O)N1CCOCC1)c1ccccc1Cl`, the “growth rescue (activation)” value is inactive: 11%.

In the case of `O=C(CN1CCCC1)Nc1ccc(NC(=O)Nc2ccccc2Cl)cc1`, the “growth rescue (activation)” value was inactive: -9.84%.

Regarding `COc1ccc(Cn2nc(C(=O)O)c3ccccc3c2=O)cc1F`, the “growth rescue (activation)” value was inactive: -2.75%.

As for `Cc1cc(NC(=O)CCC(=O)N(Cc2ccco2)C2(C(=O)NC3CCCC3)CCCCC2C)no1` (stereo not drawn), the “growth rescue (activation)” value was inactive: 2.07%.

As for `O=C(NC1CCCC1)C(c1ccncc1)N(C(=O)c1ccco1)c1ccccc1` (stereo not drawn), the “growth rescue (activation)” value is inactive: 1.28%.

In the case of `NS(=O)(=O)c1ccc(CCNC(=O)C2CCC(Cn3c(=S)[nH]c4ccccc4c3=O)CC2)cc1` (stereo not drawn), the “growth rescue (activation)” value is inactive: 17.2%.

`CCc1cccc(CC)c1N1C(=O)c2cc(N3CCOCC3)c([N+](=O)[O-])cc2C1=O`: the “growth rescue (activation)” value was inactive: 14.8%.

Consider `O=C(COC(=O)/C=C/c1cccc(Cl)c1)Nc1c(F)cccc1F`, for which the “growth rescue (activation)” value is inactive: 12.6%.

In the case of `COc1ccc(-n2nc(C(=O)NCC(=O)NC3CCCCCC3)c3ccccc3c2=O)c(OC)c1`, the “growth rescue (activation)” value is inactive: 17.2%.

As for `CN(C)S(=O)(=O)c1cccc(NC(=O)Cc2ccsc2)c1`, the “growth rescue (activation)” value is inactive: -17.3%.

As to `CC1=CC2=NC(=O)CC(C)(C(=O)N(CC(=O)NC3CCCC3)c3cc(C)cc(C)c3)N2C=C1` (stereo not drawn), the “growth rescue (activation)” value is inactive: -12.8%.

On to `CC(=O)c1c(C)[nH]c(C(=O)NCc2ccco2)c1C`, for which the “growth rescue (activation)” value was inactive: 2.71%.

In the case of `COc1ccc(CN(CC(=O)NCc2ccc(F)cc2)C(=O)c2csnn2)cc1`, the “growth rescue (activation)” value was inactive: 8.19%.

Consider `CC(C)(C)C(=O)COC(=O)c1ccc2c(c1)C(=O)N(Cc1ccco1)C2=O`, for which the “growth rescue (activation)” value is inactive: 1.39%.

As to `CC(=O)c1cc(-c2ccccc2)n(CC(=O)Nc2ccc(C)c(C)c2)c1C`, the “growth rescue (activation)” value is inactive: 12.7%.

As for `C=C(C)c1ccccc1NC(=O)CCN1C(=O)c2ccccc2S1(=O)=O`, the “growth rescue (activation)” value is inactive: 23.6%.

Consider `O=C(Nc1cccc(S(=O)(=O)N2CCCCCC2)c1)c1cncc(Br)c1`, for which the “growth rescue (activation)” value was inactive: 31.1%.

Regarding `Cc1cc2nc(-c3ccc(NC(=O)c4ccccc4F)cc3)oc2cc1C`, the “growth rescue (activation)” value is inactive: 2.94%.

Consider `O=C(CSc1nc(C2CC2)nc2ccccc12)Nc1ccccc1`, for which the “growth rescue (activation)” value is inactive: -8.24%.

As for `COc1ccc(NC(=O)c2cc(-c3ccco3)on2)cc1OC`, the “growth rescue (activation)” value was inactive: -22.9%.

With `CCOC(=O)Cc1csc(NC(=O)CSc2nnc(-c3ccncc3)o2)n1`, the “growth rescue (activation)” value was inactive: -14.9%.

Take `CC(C)(C)NC(=O)C1CCCN(S(=O)(=O)c2ccc(-n3cnnn3)cc2)C1` (stereo not drawn): the “growth rescue (activation)” value was inactive: 4.8%.

For `O=C(COC(=O)Cc1ccc(Br)cc1)NCc1cccs1`, the “growth rescue (activation)” value is inactive: 10.6%.

For `COC(=O)C1=C(C)Nc2nc3ccccc3n2C1c1ccccc1F` (stereo not drawn), the “growth rescue (activation)” value is inactive: 10.2%.

For the compound `CC(Sc1nnc2ccccn12)C(=O)Nc1ccc2c(c1)OCO2` (stereo not drawn), the “growth rescue (activation)” value was inactive: -3.49%.

For the compound `Cc1ncsc1C(=O)Nc1cccc(C(F)(F)F)c1`, the “growth rescue (activation)” value is inactive: 22.7%.

Turning to `CC(=O)N(C)c1ccc(NC(=O)c2ccc([N+](=O)[O-])cc2Cl)cc1`, the “growth rescue (activation)” value was inactive: -6.74%.

On to `CC1CC(C)CN(S(=O)(=O)c2ccc3c(c2)n(C)c(=O)c(=O)n3C)C1` (stereo not drawn), for which the “growth rescue (activation)” value is inactive: 37.9%.

Consider `CCOc1ccccc1NC(=O)CC1Nc2cc(C)c(C)cc2NC1=O` (stereo not drawn), for which the “growth rescue (activation)” value was inactive: -8.1%.

Consider `CC(C)NC(NC(=O)Cc1ccccc1)C(Cl)(Cl)Cl` (stereo not drawn), for which the “growth rescue (activation)” value is inactive: 4.53%.

In the case of `CN1CCN(C(=O)CNC(=O)c2cccs2)CC1`, the “growth rescue (activation)” value is inactive: 1.57%.

Take `CCCCOc1ccc(-c2nc(/C=N/c3nccs3)c(O)o2)cc1`: the “growth rescue (activation)” value is inactive: 31.2%.

As for `COCCCNc1nnc(Cc2ccccc2)c2ccccc12`, the “growth rescue (activation)” value was inactive: -2.65%.

For the compound `COc1cccc(N2CCN(C(=O)c3ccc(CS(=O)c4ccccc4C)o3)CC2)c1` (stereo not drawn), the “growth rescue (activation)” value is inactive: 0.119%.

For the compound `CS(=O)(=O)N1CCc2cc(C(=O)N3CCCC3)ccc21`, the “growth rescue (activation)” value was inactive: 1.38%.

Turning to `Cc1ccc(/C=N/NC(=O)C(=O)N/N=C/c2ccc(C)o2)o1`, the “growth rescue (activation)” value is inactive: 12.4%.

Take `COC(=O)c1[nH]c2ccc(Cl)cc2c1NC(=O)CN1CCC(C(N)=O)CC1`: the “growth rescue (activation)” value is inactive: 10.9%.

For the compound `Cc1ccc(/C=N/NC(=O)COc2ccccc2-c2ccccc2)cc1`, the “growth rescue (activation)” value is inactive: 22.5%.

As to `CCn1cc(C(=O)O)c(=O)c2cc(F)c(N3CCN(C(=S)NC(=O)c4ccccc4C)CC3)cc21`, the “growth rescue (activation)” value was inactive: 26.2%.

With `CN(C)CCNC(=S)Nc1ccc(-c2nc3ccccc3[nH]2)cc1`, the “growth rescue (activation)” value is inactive: -0.502%.

As to `O=C(CN1C(=O)CCS(=O)(=O)c2ccccc21)NCc1ccc2c(c1)OCO2`, the “growth rescue (activation)” value is inactive: 21.7%.

Turning to `COc1ccc(C(=O)c2c(C)c(CCC#N)n3ccccc23)c(OC)c1`, the “growth rescue (activation)” value is inactive: -12.1%.

On to `CC(C)(C)NCCOc1ccc2ccccc2c1`, for which the “growth rescue (activation)” value is inactive: 2.35%.

As to `COc1cccc(NC(=O)N2CCC(N3CCCCC3)CC2)c1`, the “growth rescue (activation)” value was inactive: 0.412%.

As to `O=C(NNc1ccccc1Br)C(=O)n1ccc2ccccc21`, the “growth rescue (activation)” value was inactive: -1.54%.

As to `CC(C(=O)NC(N)=O)N1C(=O)NC(c2ccccc2)(c2ccccc2)C1=O` (stereo not drawn), the “growth rescue (activation)” value is inactive: -0.957%.

Turning to `CCCOc1ccc(F)cc1-c1cc(C(=O)Nc2cc(OC)ccc2OC)[nH]n1`, the “growth rescue (activation)” value is inactive: 1.91%.

As to `O=C(Cc1c2ccccc2nc2ccccc12)c1ccccc1`, the “growth rescue (activation)” value was inactive: 0.373%.

As for `CCOc1ccc(S(=O)(=O)N(C)c2ccc(OCC(=O)Nc3nccs3)cc2)cc1`, the “growth rescue (activation)” value is inactive: 21.7%.

As to `CCc1nnc(SCC(=O)Nc2ccc(N3CCOCC3)cc2)n1C`, the “growth rescue (activation)” value is inactive: -14.9%.

Regarding `O=C(COc1ccc(S(=O)(=O)Nc2ccc(Cl)cc2)cc1)N1CCOCC1`, the “growth rescue (activation)” value was inactive: 4.76%.

With `Cc1cc(NC(=O)CCC(=O)N(c2ccccc2F)C(C(=O)NC2CCCC2)c2ccccc2)no1` (stereo not drawn), the “growth rescue (activation)” value was inactive: 7.29%.

`OC1CCCN(CC(O)c2ccccc2)C1` (stereo not drawn): the “growth rescue (activation)” value was inactive: -2.49%.

`CN(CC(=O)Nc1cccc2ccccc12)C(=O)/C=C/c1cccs1`: the “growth rescue (activation)” value is inactive: 20%.

As for `CCOC(=O)C1(CC2CCCCO2)CCN(Cc2cc(F)ccc2-n2cccn2)CC1` (stereo not drawn), the “growth rescue (activation)” value is inactive: -2.6%.

Regarding `CC(=O)N1CCN(c2cc3c(cc2F)c(=O)c(C(=O)O)cn3C2CC2)CC1`, the “growth rescue (activation)” value is inactive: 19.1%.

As for `CN(C)C1(CN=Cc2cc(Cl)cc([N+](=O)[O-])c2O)CCCCC1`, the “growth rescue (activation)” value was inactive: 16.3%.

As to `COc1cccc(NC(=O)CSc2nnc(-c3ccco3)c(-c3ccco3)n2)c1`, the “growth rescue (activation)” value is inactive: 6.86%.

With `COc1cccc(CN(C)C(=O)CSc2nc3ccccc3[nH]2)c1OC`, the “growth rescue (activation)” value is inactive: -5.03%.

With `COc1cc(C(=O)NNC(=O)/C=C/c2ccco2)cc(OC)c1OC`, the “growth rescue (activation)” value was inactive: 18.7%.

For the compound `CC(C)(C)NC(=O)C(c1ccc(O)cc1)N(C(=O)CCC(=O)Nc1nccs1)c1cccc(F)c1` (stereo not drawn), the “growth rescue (activation)” value is inactive: 10.8%.

As for `Fc1ccc(CSc2nncn2NCc2ccc3c(c2)OCO3)cc1`, the “growth rescue (activation)” value was inactive: 7.83%.

With `Cc1cccc(NC(=O)CSc2nnc(-c3ccco3)c(-c3ccco3)n2)c1C`, the “growth rescue (activation)” value is inactive: 21.7%.

Take `O=C(NCc1cccs1)c1cccn2c(=O)c3sccc3nc12`: the “growth rescue (activation)” value is inactive: 4.93%.

On to `COC(=O)c1cc(NC(=O)CC2CCCC2)cc(C(=O)OC)c1`, for which the “growth rescue (activation)” value was inactive: 19.2%.

`Cc1c(C(=O)O)oc2c1-c1nn(Cc3ccc(Cl)cc3)cc1CC2`: the “growth rescue (activation)” value is inactive: 10.3%.

With `Cc1ccc(C(=O)N[C@H](C(=O)OCC(=O)NC2CCS(=O)(=O)C2)C(C)C)cc1` (stereo partly drawn), the “growth rescue (activation)” value was inactive: 11.9%.
